# According to the supplement of paper PMC4166925:
# ± gives the standard deviation of the averaged measurements. In all, about 33,000 sequences were measured (“E-score (dimensionless, -0.5 to 0.5)”: median about -0.049, highest 2% from about 0.37 on). The list shows a part of the results.
# Test system: T1, PmTbr T-box DNA-binding domain (GST fusion)
# T1 sequence: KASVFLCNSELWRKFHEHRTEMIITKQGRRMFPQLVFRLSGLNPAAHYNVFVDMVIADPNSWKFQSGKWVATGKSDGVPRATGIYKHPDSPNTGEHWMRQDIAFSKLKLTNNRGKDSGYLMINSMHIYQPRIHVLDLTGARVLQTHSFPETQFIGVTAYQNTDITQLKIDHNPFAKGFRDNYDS
# Assay: PBM E-score of 8-mer (E-score (dimensionless, -0.5 to 0.5)); Tbr is Tbrain of the sea star Patiria miniata (Pm) or the sea urchin Strongylocentrotus purpuratus (Sp); higher = stronger binding preference; most listed sequences are background and not binding sites
# Conditions: the construct has about 5 more residues each side
# In short: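 Universal Agilent oligonucleotide arrays, made double-stranded by primer extension, were incubated with 200 nM GST-fused Tbr T-box DNA-binding domain in PBS (pH 7.5). The protein was expressed in BL21 E. coli at 20 °C and purified by glutathione affinity chromatography. After scanning and quantification, the Universal PBM Analysis Suite assigned an enrichment E-score to each ungapped 8-mer, averaged over duplicate arrays.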
row,Sequence,PBM E-score of 8-mer
1,GGCAGTCA,-0.0914 ± 0.0055
2,CGTGCGTC,-0.0734 ± 0.052
3,CATTCACC,-0.0785 ± 0.054
4,AACGTACA,0.0134 ± 0.073
5,GGTAACTA,-0.232 ± 0.022
6,CGGCCGGC,0.0108 ± 0.011
7,CCTAAAAG,-0.119 ± 0.033
8,CAGGAAAG,0.118 ± 0.042
9,ACGCGTGA,0.38 ± 0.012
10,ACTGTGGC,0.0104 ± 0.017
11,CGTTGATC,-0.108 ± 0.083
12,CCTAGCCC,-0.153 ± 0.033
13,AAAGATGT,0.0868 ± 0.054
14,GAGGAGCC,-0.228 ± 0.007
15,CACAGGCA,-0.0862 ± 0.047
16,AACGGAGA,-0.248 ± 0.08
17,ATATCGCG,0.309 ± 0.015
18,ACTCCAGG,-0.112 ± 0.051
19,GCTAGTAA,-0.216 ± 0.012
20,CAATCTAA,-0.204 ± 0.018
21,AGTGTATA,-0.069 ± 0.08
22,GAGTTCGC,0.222 ± 0.04
23,CGCGTGAG,0.282 ± 0.004
24,AGCGAGCT,-0.0276 ± 0.057
25,AGGTTCAC,0.144 ± 0.04

row,Sequence,PBM E-score of 8-mer
1,AAACTACT,0.0819 ± 0.0066
2,GACCGGTA,-0.176 ± 0.05
3,AATTCCGC,0.0274 ± 0.059
4,AAAAGCAT,-0.258 ± 0.053
5,GATTCAAC,-0.147 ± 0.014
6,GTGCGGAA,0.306 ± 0.0038
7,ATGACCAC,-0.0935 ± 0.029
8,GGACCATA,-0.146 ± 0.019
9,CAGTCTGC,-0.305 ± 0.032
10,AGGGACAC,-0.0342 ± 0.049
11,GGGGCTTA,-0.162 ± 0.03
12,ACTTCACG,0.262 ± 0.038
13,AAACACCG,0.143 ± 0.013
14,ACGATAGC,0.0723 ± 0.022
15,AGCGACGC,0.15 ± 0.044
16,ACTTTAGA,-0.0463 ± 0.044
17,ACGCATTC,0.0134 ± 0.0026
18,CACAGATA,-0.0278 ± 0.029
19,GGATCACC,-0.126 ± 0.049
20,CTTAATTC,-0.162 ± 0.036
21,GACAGCGA,0.05665 ± 0.00051
22,GGAATCCC,-0.151 ± 0.035
23,ACCTATTG,0.129 ± 0.034
24,GGTTATTA,-0.283 ± 0.018
25,ATCACCCA,0.276 ± 0.021

row,Sequence,PBM E-score of 8-mer
1,GTACGACA,-0.0297 ± 0.045
2,AGCACCCG,0.252 ± 0.061
3,GCGGCTCC,0.00186 ± 0.083
4,CGCTTAGC,0.149 ± 0.048
5,ACGAATAT,-0.0393 ± 0.022
6,CCGTGGCA,-0.0162 ± 0.08
7,AGCTCTAT,-0.131 ± 0.033
8,AGGTAAAC,0.0123 ± 0.059
9,CATATCCG,-0.0177 ± 0.053
10,GAATCCAC,-0.0603 ± 0.036
11,CGTGCAAG,0.127 ± 0.024
12,CAACGTGC,0.192 ± 0.017
13,ATATAGCG,0.0197 ± 0.053
14,CTCCGTCC,-0.281 ± 0.02
15,AGCACCAT,0.238 ± 0.028
16,GTGGAAAC,0.15 ± 0.04
17,CATAAACA,0.0515 ± 0.1
18,ACAGGTCT,0.0244 ± 0.081
19,GAGTACAC,-0.0545 ± 0.082
20,CTAGGTTA,-0.0985 ± 0.026
21,CGTTTAGC,0.208 ± 0.014
22,AAATTGAG,-0.0582 ± 0.059
23,ATTAGCGG,0.121 ± 0.025
24,ATAACCGC,0.0089 ± 0.0051
25,AACCCTTG,-0.194 ± 0.059

row,Sequence,PBM E-score of 8-mer
1,ATCAGGCG,0.0426 ± 0.037
2,AATGCACA,-0.13 ± 0.076
3,AGCTAATA,0.0204 ± 0.01
4,CATCGGAA,-0.167 ± 0.033
5,CGAATGCC,0.0826 ± 0.029
6,CCTCATCG,-0.118 ± 0.014
7,GAGGTAGA,-0.034 ± 0.0055
8,CTTTAGTC,-0.0181 ± 0.003
9,ATGCCGCG,0.0159 ± 0.13
10,CTAGACTA,-0.236 ± 0.027
11,GCCAGTAC,-0.137 ± 0.057
12,CTAGGGGC,0.0889 ± 0.0058
13,CTTAAACA,0.0549 ± 0.044
14,GACTGGAC,-0.0474 ± 0.025
15,ACTACTGG,-0.107 ± 0.0023
16,ATCGAGGG,-0.142 ± 0.015
17,CGCAACCC,-0.0836 ± 0.085
18,CTGTCAGC,0.17 ± 0.05
19,ACAAATCC,0.0775 ± 0.025
20,CCGTAAGC,-0.123 ± 0.0014
21,AACACGGG,0.0203 ± 0.024
22,GGGTCATA,-0.279 ± 0.015
23,GTGGTCGA,-0.0449 ± 0.057
24,CCTCGCCA,0.169 ± 0.0086
25,GGCGGCTA,-0.093 ± 0.056

row,Sequence,PBM E-score of 8-mer
1,AGATCCTA,-0.248 ± 0.053
2,AGACGCAC,-0.0781 ± 0.028
3,CCACGTGG,-0.0491 ± 0.034
4,ACCCACGC,0.2179 ± 0.00083
5,CACCTTGA,0.383 ± 0.017
6,TTCGAGAA,0.0634 ± 0.00088
7,CCACGTGC,0.149 ± 0.013
8,GACTGGCC,-0.0488 ± 0.02
9,GCATCAAA,-0.0837 ± 0.088
10,AAGACTAC,-0.179 ± 0.03
11,CCCACTAC,-0.0637 ± 0.17
12,ATAGACTA,-0.183 ± 0.017
13,ATCCAAGC,-0.099 ± 0.014
14,CATCTACA,-0.076 ± 0.082
15,AAGCAAGT,-0.0349 ± 0.02
16,CCGAGTCG,-0.0454 ± 0.094
17,TAACGGCA,-0.0208 ± 0.034
18,AACCTGCG,0.0979 ± 0.006
19,ACACTCAC,0.363 ± 0.0098
20,ACTCTTAA,-0.163 ± 0.033
21,ACTCATGC,-0.0449 ± 0.029
22,CAGCCAAA,0.00371 ± 0.033
23,CGCTTTCC,-0.124 ± 0.0079
24,AAGTGGTG,0.197 ± 0.0025
25,CAATATTC,-0.0464 ± 0.055

row,Sequence,PBM E-score of 8-mer
1,CTCATTTA,-0.0287 ± 0.11
2,CCAGGAAC,-0.0279 ± 0.023
3,ATGCGGGG,-0.246 ± 0.065
4,AGGTCCAA,0.0229 ± 0.062
5,CAGGATAA,-0.0262 ± 0.016
6,AACGGATT,-0.198 ± 0.078
7,GCAATGGC,0.0807 ± 0.034
8,TCAAGGCA,-0.256 ± 0.018
9,CCTCGGAG,-0.122 ± 0.028
10,AGCCAGAA,-0.236 ± 0.043
11,AACTGAAG,-0.0895 ± 0.042
12,AGACAGTC,-0.168 ± 0.052
13,ACTGGGCG,0.0105 ± 0.028
14,ACGGTGCA,0.0807 ± 0.013
15,CTCGGGAC,-0.18 ± 0.058
16,TACTGTGA,0.22 ± 0.011
17,GGGACACC,0.216 ± 0.077
18,ACGTTGTA,0.00283 ± 0.026
19,CAAGTGCC,0.284 ± 0.029
20,CCGGACCG,-0.101 ± 0.036
21,TACAAAGA,-0.249 ± 0.038
22,ACCGATAG,-0.178 ± 0.06
23,AGCAATCC,-0.155 ± 0.027
24,CATCAGAG,-0.207 ± 0.051
25,CCGGCGGA,-0.209 ± 0.019

row,Sequence,PBM E-score of 8-mer
1,GCTTGAAC,-0.31 ± 0.057
2,CGTCCGCC,-0.0214 ± 0.074
3,GATGCGGA,-0.206 ± 0.022
4,GTCTCTCA,0.0943 ± 0.0041
5,ATAATACC,-0.11 ± 0.039
6,CCTGGAAC,-0.219 ± 0.024
7,GGGTGCAC,-0.0369 ± 0.02
8,CCAGATCA,0.00199 ± 0.013
9,AGGTCAAC,-0.124 ± 0.074
10,ATCGTCGA,0.149 ± 0.01
11,GCTAGAAC,0.13 ± 0.032
12,CCTGGCCA,-0.199 ± 0.054
13,AAGGATGG,-0.224 ± 0.021
14,GGGCTGCA,-0.112 ± 0.066
15,GGCTGTAC,0.0347 ± 0.039
16,ATCGACCC,-0.0658 ± 0.05
17,GGTAATGA,-0.0737 ± 0.042
18,CAAATTAG,-0.0267 ± 0.033
19,AAATGTTA,-0.0353 ± 0.054
20,AAGAGGGC,-0.14 ± 0.051
21,ACTGTCCC,-0.00833 ± 0.022
22,TAGTCGCA,0.105 ± 0.03
23,CGAATGCG,-0.000465 ± 0.066
24,CTCAGCCA,-0.126 ± 0.042
25,GCCAAAAC,0.143 ± 0.043

row,Sequence,PBM E-score of 8-mer
1,CACACCCG,0.426 ± 0.019
2,TAATAAAA,-0.227 ± 0.12
3,CTGATTTC,-0.179 ± 0.0034
4,CAGGGCCA,-0.0506 ± 0.0073
5,AACGCTAT,0.0101 ± 0.0033
6,ACGATCCT,-0.0104 ± 0.021
7,AAGTTATG,-0.0901 ± 0.022
8,ATCTACGA,-0.257 ± 0.059
9,GAAGTATC,0.0124 ± 0.014
10,ACTGGGAA,-0.0647 ± 0.019
11,ACGTGAGT,0.0371 ± 0.033
12,CAACCAGG,0.0356 ± 0.061
13,AATCGCTC,-0.168 ± 0.07
14,CCGGTAGA,-0.103 ± 0.024
15,TACGACCA,-0.333 ± 0.012
16,AGAGCACA,-0.168 ± 0.023
17,ACCTATAT,0.143 ± 0.028
18,AGCTCCAG,-0.385 ± 0.0011
19,CCGCGATA,0.214 ± 0.011
20,CATTTTAA,-0.183 ± 0.018
21,GCACGAGA,-0.0965 ± 0.075
22,GCCGGTTA,-0.094 ± 0.1
23,CAATTAGA,-0.0492 ± 0.017
24,CACGTGAC,0.315 ± 0.0075
25,GCTTTTGA,-0.0819 ± 0.08

row,Sequence,PBM E-score of 8-mer
1,CATCATGG,-0.227 ± 0.0057
2,CCATCGGC,0.0427 ± 0.028
3,CTCTTCAC,0.238 ± 0.029
4,AATAATCA,0.101 ± 0.045
5,AGAGAACT,-0.226 ± 0.058
6,CCGGTGTC,0.247 ± 0.0031
7,ACTTGGTG,0.199 ± 0.044
8,ACAGCGTG,0.0787 ± 0.023
9,GACTTCAA,-0.0958 ± 0.057
10,AGCCCGAA,-0.13 ± 0.029
11,CAAGTCGA,0.0656 ± 0.014
12,CGCACGAA,0.108 ± 0.097
13,AAGAGCAG,-0.138 ± 0.12
14,GGTTTATA,-0.151 ± 0.012
15,GATCGTCA,0.0883 ± 0.018
16,ACTCGGAT,-0.114 ± 0.042
17,TCGCTCCA,0.0241 ± 0.008
18,GCACAACA,0.17 ± 0.013
19,AAGCTATG,-0.28 ± 0.016
